The test system of the test is NCI-H322M lung. In words: NCI-60 cell line screen, 48 h.

Molecules are shown by their SMILES. Values joined by “and” are separate entries in the source; they are usually repeats but may differ in a detail not shown here. Equal values may be shown once.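 Values below derive from 48-hour exposures of cells grown in 96-well plates, with endpoints linearly interpolated between the two concentrations bracketing the appropriate inhibition level. GI50: concentration for 50% inhibition of growth. TGI denotes the concentration required for complete inhibition of growth.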 Bounds are passed on as bounds.

`CN(C)CCn1c(=O)c2ccc(NCCNCCO)c3c(=O)c4cc(O)ccc4n(c1=O)c23` gave a TGI of 5.02 µM.
In the case of `CCCCCCCCCCCCNC(=O)[C@H]1CSC(c2ccc(OC)c(F)c2)N1` (stereo partly drawn), the GI50 is 1.79 µM and the TGI was determined as 3.2 µM.
As for `CCCCCCN(CCCCCC)CC(O)c1cccc2ccc(Cl)cc12` (stereo not drawn), the GI50 is 10.7 µM and the TGI stood at 24.6 µM.
In turn, `CNC(=O)OCC1=C(COC(=O)NC)CN(c2ccccc2)C1` showed a TGI of more than 100 µM.
In the case of `O=[N+]([O-])c1cccc(-c2ncc(-c3ccc(Cl)cc3Cl)[nH]2)c1`, the GI50 was 9.42 µM and the TGI was more than 54.9 µM.
Consider `C#Cc1cccc(Nc2ncnc3ccc(-c4cncc(NS(C)(=O)=O)c4)cc23)c1`, for which the GI50 was 0.411 µM and the TGI stood at 4.41 µM.
With `COC(=O)CCc1ccc2c(c1)CC1(C2)Cc2ccc(CCC(=O)OC)cc2C1`, the TGI is more than 100 µM.
`C=CC(C)(C)n1cc(C2=C(O)C(=O)C(c3cn(C(C)(C)C=C)c4ccccc34)=C(OC(C)=O)C2=O)c2ccccc21` registered a TGI of 2.31 µM.
`COC1C(CO)OC(n2c3ccccc3c3c4c(c5c6ccccc6[nH]c5c32)C(=O)NC4=O)C(O)C1OC(=O)C(N)CCCCN` (stereo not drawn): the GI50 was 0.798 µM and the TGI is 2.99 µM.
`C/C(=N/Nc1ccc([N+](=O)[O-])cc1[N+](=O)[O-])C(CC(C(=O)Nc1ccccc1C)/C(C)=N\Nc1ccc([N+](=O)[O-])cc1[N+](=O)[O-])C(=O)Nc1ccccc1C` (stereo not drawn) yielded a TGI of 30 µM.
In the case of `CSc1nc2c(ncn2C2OCC(O)C(O)C2O)c(=O)[nH]1` (stereo not drawn), the TGI was more than 100 µM.
For `CC(=O)N[C@@H]1CCC[C@H](C(=O)Nc2cc(-c3cnn4c3CC(C)(C)C4)c(Cl)cn2)C1`, the GI50 was less than 0.0129 µM and the TGI is more than 37.6 µM.
The compound `O=C(O)CNC(=O)c1cccc2c(=O)c3ccccc3[nH]c12` had a TGI of more than 100 µM.
Still for that read-out and setting: to `O=C1N2CCc3c([nH]c4ccccc34)C23CC2CCCC12S3` (stereo not drawn) belongs more than 50 µM.
Consider `CCCCCCCCCCCCCCCCCC1=NC(C)(C)CN1CCO`, for which the GI50 was 2.8 µM and the TGI stood at 10.5 µM.
In turn, `Cc1[nH]c(=O)nc(N/N=C/c2ccc(O)cc2)c1C(=O)Nc1ccc(Cl)cc1` registered a TGI of more than 100 µM.
For the compound `Cc1cc(N)c2ccccc2[n+]1CCCCCCCCCC[n+]1c(C)cc(N)c2ccccc21`, the GI50 is 1.05 µM and 1.7 µM; the TGI is 4.19 µM and 14.7 µM and 25.1 µM.
For `CC(=O)C1=C(O)/C(=C\c2ccco2)OC1=O`, the TGI is more than 10 µM.
With `O=C(NO)C(O)C(O)C(O)C(O)CO` (stereo not drawn), the GI50 is > 100 µM and 53.6 µM; the TGI is more than 100 µM.
`OCc1ccccc1OC1OC(CO)C(O)C(O)C1O` (stereo not drawn) yielded a TGI of more than 100 µM.
Still for that read-out and setting: to `O=C(Nc1ccccc1)N1N=C(c2ccccc2)C1c1ccccc1` (stereo not drawn) belongs more than 100 µM.
The same measure, in the same setting: to `COc1cc2cc3c4c(cc(OC)c(OC)c4c2cc1OC)CCN3C(=O)OCCBr` belongs more than 100 µM.
Still for that read-out and setting: to `COc1ccccc1OC/C(N=Cc1ccncc1)=N/NC(=O)c1ccncc1` belongs more than 100 µM.
As for `O=[N+]([O-])O.[NH-]C1CCCCC1[NH-].[NH-]C1CCCCC1[NH-].[NH-]C1CCCCC1[NH-].[OH-].[OH-].[OH-].[Pt+4].[Pt+4].[Pt+4]` (stereo not drawn), the GI50 is 0.596 µM.
`COc1ccc(C[C@H]2COC(=O)[C@@H]2Cc2cc(OC)c(OC)c(OC)c2)cc1OC`: the TGI was more than 100 µM.
The compound `CN(Cc1nc2c(N)nc(N)nc2nc1N)c1ccc(C(=O)NC(CCC(=O)O)C(=O)O)cc1` (stereo not drawn) had a TGI of more than 100 µM.
`C[C@@H](C[C@@H](O)[C@H](O)C(C)(C)O)[C@H]1CC=C2[C@]3(C)[C@H](O)C[C@H]4C(C)(C)[C@H](O)CC[C@]4(C)[C@H]3CC[C@@]21C`: the TGI is 28.1 µM.
Consider `C=C(CC1(CC(=C)c2ccc(C(=O)O)cc2)C(=O)N(C)C(=O)N(C)C1=O)c1ccc(C(=O)O)cc1`, for which the GI50 was 37.7 µM and the TGI is more than 100 µM.
For `COc1cc(OC)cc(N2CCN(C(=O)Nc3nc4cc(F)ccc4nc3OC)CC2)c1`, the GI50 was 0.0665 µM and 0.0726 µM and 0.0746 µM; the TGI was > 100 µM and 92.5 µM.
`O=C(NCCCCl)c1c(O)c2ccccc2[nH]c1=O` returned a TGI of more than 100 µM.
Compound `Cc1cccc(CC(C)(C)C)c1NC(=O)C(=O)C(C(=O)c1ccc2ccccc2c1)C1OC(=O)c2ccccc21` (stereo not drawn) showed a TGI of more than 100 µM.
`Cn1c(COC(=O)NCCN2CCOCC2)nc2c(N3CCOCC3)nc(-c3ccccc3)nc21`: the GI50 is 1.72 µM and the TGI came out at 3.67 µM.
`COC(=O)C(=O)C(C(=O)C(=O)Nc1ccccc1C(N)=O)c1nc2ccc(C(=O)c3ccccc3)cc2[nH]c1=O` (stereo not drawn) displayed a TGI of more than 100 µM.
On to `CCSc1nc(N)c2cnn(C)c2n1`, for which the GI50 was 30.5 µM and the TGI was more than 100 µM.
Compound `CC(C)CC1c2[nH]c3ccccc3c2C[C@H]2C(=O)NC(COC(C)(C)C)C(=O)N12` (stereo partly drawn) yielded a TGI of more than 100 µM.
The same measure, in the same setting: to `O=C1CC2Sc3ccccc3N=C2N1c1ccc(Cl)cc1Cl` (stereo not drawn) belongs more than 100 µM.
Still for that read-out and setting: then `CN1CC(C(=O)NC2(C)OC3(O)C4CCCN4C(=O)C(Cc4ccccc4)N3C2=O)C=C2c3cccc4[nH]cc(c34)CC21` (stereo not drawn), with more than 100 µM; and `Cc1ns/c(=N\C(=S)N(C)C)n1C`, with more than 100 µM.
`Cc1c(-c2coc(-c3ccc(Cl)cc3)n2)c(=O)n(-c2ccccc2)n1C` came in with a TGI of more than 100 µM.
Same read-out and setting: then `CC(C)=C1CCC(CN2CCCC2)C1=O` (stereo not drawn), with more than 100 µM.
As to `N#Cc1ccc(N2Cc3cc(Cl)ccc3OC3=C2C(=O)N(Cc2ccccc2)C3=O)cc1`, the GI50 was 7.21 µM and the TGI is 20 µM.
`COc1ccc(S(=O)(=O)Nc2ccc(-c3csc(N4C(=O)/C(=C/C=C\c5ccccc5)N=C4c4ccccc4)n3)cc2)cc1Cl` had a TGI of more than 100 µM.
Compound `COc1ccc([C@@]23CCC(=O)C[C@@H]2N(C)CC3)cc1OC` registered a TGI of more than 100 µM.
As to `O=c1[nH]c(-c2ccccn2)nc2sc3c(c12)CCCCCC3`, the GI50 is 84.6 µM and the TGI is more than 100 µM.
Regarding `COc1ccc(C=O)cc1Oc1ccc(C[C@H]2c3c(cc(OC)c4c3Oc3cc5c(cc3O4)CCN(C)C5=O)CCN2C)cc1`, the TGI was found to be 17.6 µM.
On the same count and under the same terms, then `CCCCC(=C=C1CCCCC1O)C1CCCN1C(=O)OC(C)(C)C` (stereo not drawn), with 29.6 µM; and `BrCC[P+](c1ccccc1)(c1ccccc1)c1ccccc1`, with 39.7 µM; and `COC(=O)CNC(=O)/C=C/[C@H](O[Si](C)(C)C(C)(C)C)[C@H](/C=C/C(=O)NCC(=O)OC)O[Si](C)(C)C(C)(C)C`, with more than 25 µM.
Regarding `OCCCCC#Cc1ccccc1C#Cc1cnccn1`, the GI50 was 48.8 µM and the TGI was more than 100 µM.
`CCC1(O)CN(CCOC)[C@H]2C[C@@H]1C(=O)c1[nH]c3ccccc3c12` (stereo partly drawn) yielded a TGI of more than 100 µM.
Take `CCN(CC)CCOc1ccc(C2=C(c3ccccc3)CCc3cc(OC)ccc32)cc1`: the GI50 is 3.61 µM and the TGI came to 14.3 µM.
With `C=CC1(CCC(Br)C(C)(C)Cl)CO1` (stereo not drawn), the TGI is more than 10 µM.
Still for that read-out and setting: then `CCN1CC2(C)CC[C@@H](OC)C34[C@@H]2[C@H](OC(C)=O)C2(OCO[C@@]25C[C@H](OC)C2C[C@]3(O)[C@@H]5[C@H]2O)[C@H]14`, with more than 100 µM.
On to `C[C@H](NC(=O)CCC(F)(F)F)C(=O)N[C@@H]1C(=O)N(CCO)c2ncccc2-c2ccccc21`, for which the GI50 is more than 100 µM and the TGI was more than 100 µM.
`CCOC(=O)NNC(=O)NC12CC3CC(CC(C3)C1)C2`: the TGI is more than 100 µM.
The same measure, in the same setting: then `C=CCN1C(=O)/C(=C/c2ccc(Cl)cc2)N=C1SC1OC(COC(C)=O)C(OC(C)=O)C(OC(C)=O)C1OC(C)=O` (stereo not drawn), with > 100 µM and 85.1 µM.
In the case of `COc1cc(OC)c(/C=C/S(=O)(=O)Cc2ccc(OC)c(NCC(=O)O)c2)c(OC)c1`, the GI50 was 0.184 µM and the TGI was more than 100 µM.
Take `Cc1cccc(N2C(=O)/C(=C/c3ccc(N(CCC#N)CCC#N)cc3C)N=C2c2cc([N+](=O)[O-])ccc2Cl)c1`: the TGI is more than 100 µM.
The same measure, in the same setting: then `O=C(O)c1ccc(Nc2cnc3ccc(C(F)(F)F)cc3n2)cc1`, with 37.9 µM; and `CN1C(=O)C23CC4=CC=CC(O)C4N2C(=O)C1(CO)SS3` (stereo not drawn), with 0.424 µM; and `N#CC1(C#N)C2C=CC(C3CCC=C32)C1(C#N)C#N` (stereo not drawn), with more than 10 µM.
Regarding `COC1(OC)N=C(N)C2(C#N)/C(=N/N(C)C)CC(C)C12C#N` (stereo not drawn), the TGI is more than 100 µM.
Still for that read-out and setting: to `C=C1C(=O)C[C@@]23CCC[C@@]12CC(O)C3` (stereo partly drawn) belongs more than 80.3 µM; to `Clc1ccccc1C1=NN(c2ccccc2)C2c3cc(Br)ccc3OCC12` (stereo not drawn), more than 100 µM.
In the case of `c1ccc(COc2ncccc2C2SCCCS2)cc1`, the TGI is more than 100 µM.
Regarding `Cc1cc2c(cc1Cl)SC1=NN(C)C(c3ccccc3O)N1S2(=O)=O` (stereo not drawn), the GI50 is 62.8 µM and the TGI is more than 100 µM.
The compound `CCOC(=O)Cc1nc2c(=O)[nH]cnc2n1C1OC(COC(C)=O)C(OC(C)=O)C1OC(C)=O` (stereo not drawn) had a TGI of more than 100 µM.
In turn, `C=C(CCC(C(=O)O)C1CCC2(C)C3=C(CCC12C)C1(C)CCC(O)C(C)(C)C1CC3)C(C)C` (stereo not drawn) registered a TGI of more than 100 µM.
As to `CCOc1ccc(NC(=S)/N=C/C(C(=O)Nc2ccccc2C)=C(\C)O)cc1`, the TGI is more than 100 µM.
As to `O=C1c2cccc3cccc(c23)C(=O)N1CCCN1CCN(CCCN2C(=O)c3cccc4cccc(c34)C2=O)CC1`, the TGI is more than 100 µM.
In turn, `CN(C)CCNc1nc2ccccc2c2c1C(=O)c1ccccc1-2` registered a TGI of 3.77 µM.
`CN(C)CCNC(=O)c1cccc2c(NC(CS)C(=O)O)c3ccccc3nc12` (stereo not drawn): the TGI turned out to be 77.9 µM.
On the same count and under the same terms, then `CC(=O)c1nccc2c1c(C)nc1ccccc12`, with more than 100 µM; and `CC1=CC(c2ccccc2)n2c(nc3cc4ccccc4cc32)N1` (stereo not drawn), with more than 100 µM; and `O=C(O)c1ccccc1-c1ccccc1C(=O)c1ccccc1`, with more than 100 µM.
Consider `CCCOc1c2cc(COC3OC(CO)C(O)C(O)C3O)cc1Cc1cc(COC3OC(CO)C(O)C(O)C3O)cc(c1OCCC)Cc1cc(COC3OC(CO)C(O)C(O)C3O)cc(c1OCCC)Cc1cc(COC3OC(CO)C(O)C(O)C3O)cc(c1OCCC)C2` (stereo not drawn), for which the GI50 was > 100 µM and 41.7 µM and 35.6 µM; the TGI is more than 100 µM.
In turn, `O=C(CCN1CCCCC1CO)Nc1ccc2c(c1)C(=O)c1ccc(NC(=O)CCN3CCCCC3CO)cc1C2=O` (stereo not drawn) came in with a TGI of 42.2 µM.
Compound `O=C(OCc1nc2ccc(Br)cc2c(=O)n1-c1ccccc1)c1ccccc1O` gave a TGI of more than 100 µM.
Same read-out and setting: to `CN1c2ccccc2C(=O)Nc2cnc(Cl)nc21` belongs more than 100 µM; to `COC(=O)C1(Cc2ccccc2)Cc2ccccc2C1=O` (stereo not drawn), more than 100 µM.
In the case of `CCCCCCN1C(=O)CN=C1Nc1ccc2cc3ccc(NC4=NCC(=O)N4CCCCCC)cc3nc2c1`, the GI50 is 3.87 µM and the TGI stood at 17.9 µM.

(Values after PubChem BioAssay (NCI).)
